# According to PubChem BioAssay AID1745845 (National Center for Advancing Translational Sciences (NCATS), 2022):
# “And” between values parts separate entries of the source, which are not always exact repeats. Equal entries are not always repeated. The campaign covered roughly 360,000 compounds. About 2,600 (0.72%) were called active. This list was built around the results that the source calls inconclusive (neither active nor inactive); the mix of calls is not that of the screen. The call rests on the fitted dose curve; in most records, active means well fitted inhibition curve with a large enough effect; inconclusive means small, poorly fitted or top-dose-only effect; inactive means no such curve, though single readings can be large or run the other way. Potencies of inconclusive entries are doubtful fits and often do not repeat.
# Experiment: Primary qHTS for Inhibitors of ATXN expression; further: nearly all actives have a fitted effect of over 55% in size
# Settings: HEK-293 ATXN2-luciferase reporter, luminescence, 24 h; activity change, negative = inhibition: at 57 µM (top of the series)
# Outline: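 qHTS (up to 57 uM final) was run with 24 h compound exposure of reporter cells at 37 °C. Each well was multiplexed: SteadyGlo luminescence measured ATXN2-luciferase expression after a fluorogenic Gly-Phe-AFC viability readout (25 uM final).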
# On the % scale 0 is the no-effect control and ±100 the full control effect; potency means the concentration at half of the fitted maximal effect; tags describe the fitted curve by direction and shape.
SMILES,Potency,"activity change, negative = inhibition"
COc1ccccc1CNc1nc(NCc2cccs2)nc2ccsc12,"inconclusive: 28.2 µM [inhibitor, partial curve, poor fit]",
CCc1nc2ccc(C(=O)NCCOc3ccc(OC)cc3)cn2c1N(C)Cc1nccn1C,inactive,
Cn1cc(/C=C2/SC(=O)N(CC(=O)Nc3ccc4c(c3)OCO4)C2=O)c2ccccc21,"inconclusive: 28.2 µM [inhibitor, single point]",
C=CCn1c(=O)c(C(=O)Nc2ccccc2C)c(O)c2ccccc21,inactive,
Cc1ccc(C2CC(=O)N(Cc3ccc(F)cc3)c3c2c(C)nn3-c2nc(C)cc(C)n2)cc1 (stereo not drawn),inactive,
C[C@@H](CN1C2=NC[C@H](Cc3ccccc3)N2C[C@H]1Cc1ccc(O)cc1)NC(=O)CCC1CCCCC1,active: 28.2 µM,
Cc1ccc(C(=O)c2oc3ccccc3c2NC(=O)COc2ccccc2C)cc1,inactive,
O=C(NN1CCOCC1)c1ccc(Br)s1,"inconclusive: 23.8 µM [inhibitor, partial curve, poor fit]",
Cn1c(=O)c2cc(C(=O)NCCCN3CCN(c4ccc(F)cc4)CC3)sc2c2ccccc21,"inconclusive: 5.01 µM [inhibitor, single point]",
COc1ccc(C(CNc2nc(-c3cccnc3)nc3ccccc23)N(C)C)cc1 (stereo not drawn),"inconclusive: 10 µM [inhibitor, partial curve, poor fit]",
COc1ccc(C(=O)/C=C/c2cn(CC(O)CN3CCCCCC3)c3ccccc23)cc1OC (stereo not drawn),"inconclusive: 22.4 µM [inhibitor, single point]",
COc1ccc(C(=O)/C=C/Sc2nc3ccccc3o2)cc1,"inconclusive: 39.8 µM [inhibitor, single point]",
COc1cc2sc(-c3ccccc3OC)c(-c3ccc(OCCN4CCCCC4)cc3)c2cc1OC,"inconclusive: 28.2 µM [inhibitor, single point]",
O=C(O)c1ccccc1/C=N/NC(=S)NC1CCCCC1,inactive,
CC(CSc1nc2ccccc2s1)Cn1c(N2CCCC2)nc2c1c(=O)[nH]c(=O)n2C (stereo not drawn),inactive,
O=C(Nc1cccc([N+](=O)[O-])c1)Nc1cccc([N+](=O)[O-])c1,inactive,
CC(C)C[C@H]1CN([C@@H](Cc2ccc(O)cc2)CN2CCC[C@@H]2CN2C(=O)C(=O)NC[C@@H]2Cc2ccccc2)C(=O)C(=O)N1CC1CCCCCC1,"inconclusive: 25.1 µM [inhibitor, single point]",
CC(C)n1cnc2c(NCc3ccccc3)cc(OCC3CCN(C)CC3)cc21,"inconclusive: 35.5 µM [inhibitor, single point]",
COc1ccc(OC)c(Nc2c3ccccc3nc3ccccc23)c1,active: 11.2 µM,
COc1cc(/C=N/N=C(N)N)ccc1OCc1ccc(Cl)cc1,"inconclusive: 25.1 µM [inhibitor, single point]",
Cc1oc2c(c1C(=O)Nc1ccc(OC(F)(F)F)cc1)C1=NCCN1C=N2,inactive,
COc1ccc(CCNC(=O)c2ccc(Cn3c(=O)c4ccccc4n(Cc4cccc(F)c4)c3=O)cc2)cc1OC,"inconclusive: 25.1 µM [inhibitor, single point]",
O=C(O)CCCC(=O)Nc1ccccc1C(=O)N1CCCC1,"inconclusive: 39.8 µM [inhibitor, partial curve, poor fit]",

SMILES,Potency,"activity change, negative = inhibition"
O=C1c2ccccc2CCc2ccccc21,inactive,
S=c1[nH]ccn1CCc1ccccc1,"inconclusive: 35.5 µM [inhibitor, single point]",
CSc1nc(NS(=O)(=O)c2ccc(F)cc2F)nn1C,inactive,
CCN(CC)C(=O)CSc1nc2ccc(NC(=O)CSc3nccn3C)cc2s1,inactive,
O=C(N/N=C/C=C/c1ccccc1)c1cccs1,"inconclusive: 2.38 µM [inhibitor, partial curve, poor fit]",
CCN(CC)S(=O)(=O)c1cccc(NC(=O)c2ccc(-n3nc(C)cc3C)cc2)c1,"inconclusive: 31.6 µM [inhibitor, single point]",
CCOC(=O)C1=Nc2ccccc2C1=[N+]=[N-],"inconclusive: 22.4 µM [inhibitor, partial curve, poor fit]",
O=C(O)c1cc(N/N=C/C(Cl)=C/c2ccccc2)ccc1Cl,"inconclusive: 13.4 µM [inhibitor, single point]",
CC(C)Cc1ccc(CN2CCCC(NC(=O)c3cnc4ccccn4c3=O)C2)cc1 (stereo not drawn),"inconclusive: 1.58 µM [inhibitor, partial curve, poor fit]",
O=C(NCCNc1ccc([N+](=O)[O-])cc1)c1cccc(Br)c1,inactive,
Cc1ccc(C)c(N2CCN(C(=O)CCC(=O)N3CCOc4ccc(Cl)cc43)CC2)c1,"inconclusive: 22.4 µM [inhibitor, partial curve, poor fit]",
CC(=O)c1ccc(NC(=S)N2CCN(c3cccc(Cl)c3)CC2)cc1,,inactive: -11.3% [at 11.3 µM]
Cc1cc2c(cc1C)N(C(=O)CSc1nncn1C)C(C)(C)c1ssc(=S)c1-2,"inconclusive: 35.5 µM [inhibitor, single point]",
Nc1ccc2c(c1)OC1(CCCC1)O2,"inconclusive: 2.12 µM [inhibitor, full curve, poor fit]",
COc1ccc2cc(-c3cc(C(=O)O)c4ccccc4n3)ccc2c1,"inconclusive: 10 µM [inhibitor, partial curve, poor fit]",
Cc1cc(C(=O)Nc2ccc(Cl)cc2)c(C)n1-c1ccccc1,"inconclusive: 21.2 µM [inhibitor, partial curve, poor fit]",
O=C(/C=C/c1ccc(OC2CSC2)cc1)c1ccccc1,"inconclusive: 39.8 µM [inhibitor, single point]",
CCOc1ccc(Br)cc1S(=O)(=O)Nc1cccc(S(=O)(=O)N(C)c2ccccc2)c1,inactive,
CC1CCc2c(sc(NC(=O)CSc3ncn[nH]3)c2C#N)C1 (stereo not drawn),active: 0.336 µM,
CC(C)=CC(O)C/C(C)=C/COc1ccc2ccc(=O)oc2c1 (stereo not drawn),"inconclusive: 37.7 µM [inhibitor, single point]",
O=C(Nn1cc(C(=O)Nc2ccc(F)cc2F)c2ccccc2c1=O)c1cnccn1,"inconclusive: 9.47 µM [inhibitor, partial curve, poor fit]",
COc1ccc(S[C@@H](CCN2CC[C@H](C)CCC2=O)c2ccccc2)cc1,"inconclusive: 39.8 µM [inhibitor, partial curve, poor fit]",
CCC(=O)Nc1cc2nn(-c3ccc(OC)cc3)nc2cc1C,"inconclusive: 17.8 µM [inhibitor, single point]",

SMILES,Potency,"activity change, negative = inhibition"
O=C(O)C=Cc1ccc(O)c(O)c1,"inconclusive: 24.3 µM [inhibitor, partial curve, poor fit]",
COc1cc2c(cc1OC)C(COc1ccc3c(C)cc(=O)oc3c1)N(C(=O)c1ccccc1C)CC2 (stereo not drawn),inactive,
CS(=O)(=O)c1ccc(Cl)c(NC(=O)CCl)c1,"inconclusive: 21.2 µM [inhibitor, partial curve, poor fit]",
CC(C)N(CC(=O)Nc1ccc(Cl)cc1C(F)(F)F)C(=O)CCl,active: 18.9 µM,
c1cnc(N2CCN(c3ncc4c(n3)CCNC4)CC2)nc1,inactive,
N#CCCn1cc(/C=C(\C#N)c2nc3ccccc3s2)c(-c2ccc(F)cc2)n1,"inconclusive: 20 µM [inhibitor, single point]",
COc1ccc(/C=N/Nc2ncnc3c2[nH]c2ccc(C)cc23)c(OC)c1OC,"inconclusive: 17.8 µM [inhibitor, partial curve, poor fit]",
Cc1ccc(NCc2n[nH]c(=S)n2-c2ccccc2)c(C)c1,"inconclusive: 7.52 µM [inhibitor, partial curve, poor fit]",
COc1ccccc1N(C)S(=O)(=O)c1ccc(C(=O)Nc2ccc3nc(C)sc3c2)cc1,"inconclusive: 39.8 µM [inhibitor, single point]",
CC(C)CC#Cc1ccc2c(c1)O[C@H](CN(C)C(=O)Cc1ccncc1)[C@H](C)CN([C@H](C)CO)S2(=O)=O,"inconclusive: 20 µM [inhibitor, partial curve, poor fit]",
O=C(OC1CC2CC1[C@H]1CCCCN1C2=O)N1CCC(c2ccccc2)CC1 (stereo partly drawn),inactive,
Cc1nc(N2CCN(C(=O)c3ccco3)CC2)c2c3c(sc2n1)CCCC3,"inconclusive: 35.5 µM [inhibitor, single point]",
C/C(CC(=O)Nc1ccc(N(C)C)cc1)=N\NC(=O)c1ccc(Cl)cc1Cl,inactive,
O=C(Nc1ccc(Nc2ccccc2)cc1)c1ccc(Cl)cc1Cl,"inconclusive: 39.8 µM [inhibitor, single point]",
CC1(Cc2ccc(C(F)(F)F)nc2)C(=O)Nc2cc(-c3ccccc3Cl)ccc21 (stereo not drawn),"inconclusive: 25.1 µM [inhibitor, partial curve, poor fit]",
Cc1ccc(CN2C3=NCCCN3c3ccccc32)cc1,inactive,
OCCNc1ncnc2c1ncn2[C@H]1CN(Cc2ccncc2)C[C@@H](CO)O1,inactive,
Nc1c2ccccc2nc2ccccc12,active: 4.47 µM and active: 5.97 µM and active: 5.01 µM,
Cc1ccc(NC(=O)c2nc[nH]c2C(=O)N[C@H](C)c2ccccc2)cc1,"inconclusive: 22.4 µM [inhibitor, single point]",
O=C(Nc1cccc2cccnc12)c1cccc([N+](=O)[O-])c1,inactive,
Cc1ccc(C)c(NS(=O)(=O)c2ccc(OCC(=O)NCc3ccco3)cc2)c1,inactive,
O=C(Nc1ccc2c(c1)OCO2)N1CCN(C/C=C/c2ccccc2)CC1,inactive,
